# Experimental data taken from PubChem BioAssay (Tox21).
# Where “and” joins values, the source holds several entries; their conditions need not be identical. Equal entries are not always repeated. The shares of active, inactive and inconclusive entries below differ from those in the screen. For part of these data: A potency beside an inconclusive call is a rough fit, not a confirmed value. A structure can be active in one record and inactive in another. Calls of active or inactive are those of the source. Unless noted, the call rests on the fitted dose curve; in most records, active means well fitted curve in the direction sought with a large enough effect in the repeat runs; inconclusive means weak or mixed curves; inactive means no such curve, though single readings can be large; an effect the other way counts as inactive or inconclusive.
# What was measured:
# [1] = Caspase-3/7 induction in CHO-K1 cells by small molecules, qHTS cell viability counter screen (AID 1346979); further: nearly all actives have a fitted effect of over 35% in size; further: potency means the concentration at half of the fitted maximal effect
# Outline: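 Cells (CHO-K1, wild type) are plated at 1,500 per well and incubated 5hr. Test compounds in DMSO are then pinned in, followed by 16hr at 37C and 5% CO2. Viability is read by CellTiter-Fluor fluorescence after 1hr.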
# [2] = biological target: Nuclear receptor subfamily 1 group I member 2 (Homo sapiens) (UniProt O75469); assay: Human pregnane X receptor (PXR) small molecule agonists, qHTS assay (AID 1346982); further: nearly all actives have a fitted effect of over 35% in size; further: potency means the concentration at half of the fitted maximal effect
# Outline: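 Agonist mode: luminescence from ONE-Glo after 24 h compound exposure at 37C in HepG2 cells carrying hPXR-responsive CYP3A4 luciferase, plated in charcoal-stripped serum medium 5 h beforehand.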
# [3] = biological target: Nuclear receptor subfamily 1 group I member 2 (Homo sapiens) (UniProt O75469); assay: CYP3A4 induction through human pregnane X receptor (PXR) by small molecules, qHTS assay (AID 1346984); further: potency means the concentration at half of the fitted maximal effect; nearly all actives have a fitted effect of over 40% in size
# Outline: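 Read-out is luminescence after One-Glo addition, following a 3 hr, 37C incubation with Luciferin-IPA CYP3A4 substrate (3uM final). Before that, compounds were on DPX-2 cells (HepG2 co-transfected with PXR element plus CYP3A4-promoter luciferase) for 24 hr at 37C.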
# [4] = biological target: Acetylcholinesterase (Homo sapiens) (UniProt P22303); assay: Acetylcholinesterase (AChE) small molecule antagonists: colormetric cell-based qHTS assay (AID 1347395; calls by dose curve; further: nearly all actives have a fitted effect of over 30% in size; further: potency means the concentration at half of the fitted maximal effect)
# Outline: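 Colorimetric read-out: DTNB detects thiocholine released when cellular AChE in SH-SY5Y cells hydrolyses acetylthiocholine. Cells attached overnight, received compound for 30 min at 37 C, then substrate mix for 90 min at 37 C.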
# [5] = biological target: Acetylcholinesterase (Homo sapiens) (UniProt P22303); assay: Acetylcholinesterase (AChE) small molecule antagonists: fluorescence cell-based qHTS assay (AID 1347398; calls by dose curve; further: potency means the concentration at half of the fitted maximal effect; nearly all actives have a fitted effect of over 50% in size); conditions: Potency: AChE activity
# Outline: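 Cells (SH-SY5Y) attached overnight, were dosed with compound or DMSO vehicle for 30 min at 37 C, and then incubated 40 min at room temperature with acetylthiocholine and Thiolite Green; green fluorescence indexed AChE activity.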
# [6] = biological target: Cytochrome P450 2C19 (Homo sapiens) (UniProt P33261); assay: Cytochrome P450 Family 2 Subfamily C Member 19 (CYP2C19) small molecule antagonists: luciferase reporter qHTS assay (AID 1671197); further: potency means the concentration at half of the fitted maximal effect; nearly all actives have a fitted effect of over 65% in size
# Outline: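 First, compounds are pinned into enzyme-substrate mix and held 10 min at room temperature. Second, NADPH regeneration solution is added and plates incubate 1 h at 37C. Third, detection reagent is added and luminescence read after 20 min.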
# [7] = Caspase-3/7 induction in HepG2 cells by small molecules, qHTS cell viability counter screen (AID 1346981); further: nearly all actives have a fitted effect of over 30% in size; further: potency means the concentration at half of the fitted maximal effect
# Outline: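 CellTiter-Fluor fluorescence measured viability in the same wells used for Caspase-Glo 3/7. HepG2 (wild type) at 2,000 cells/well were pre-incubated 5 hr, dosed, and given reagent at 16 hr, with 1 hr further at 37C.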
# [8] = Caspase-3/7 induction in CHO-K1 cells by small molecules, qHTS assay (AID 1346980); further: nearly all actives have a fitted effect of over 15% in size; further: potency means the concentration at half of the fitted maximal effect
# Outline: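 Wild-type CHO-K1 cells exposed to compounds for 17hr at 37 C, 5% CO2. Caspase-3/7 activity then measured by Caspase-Glo 3/7 luminescence after 30min at room temperature.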
# [9] = biological target: Acetylcholinesterase (Homo sapiens) (UniProt P22303); assay: Acetylcholinesterase (AChE) small molecule antagonists: enzyme-based qHTS assay (AID 1347397; calls by dose curve; further: potency means the concentration at half of the fitted maximal effect; nearly all actives have a fitted effect of over 55% in size); conditions: Potency: AChE enzyme activity inhibition
# Outline: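 In this quantitative HTS, compounds from the Tox21 10K collection were preincubated 30 min at ambient temperature with recombinant human AChE dispensed at 50 mU/mL. Hydrolysis of acetylthiocholine was then followed for 10 min by DTNB colour development.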
# [10] = biological target: Acetylcholinesterase (Homo sapiens) (UniProt P22303); assay: Acetylcholinesterase (AChE) small molecule antagonists: enzyme-based qHTS assay with human liver microsomes (AID 1347399; calls by dose curve; further: potency means the concentration at half of the fitted maximal effect; nearly all actives have a fitted effect of over 60% in size); conditions: Potency: qHTS inhibition
# Outline: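 Recombinant human AChE (50 mU/mL in the enzyme mix) and human liver microsomes (0.25 mg/mL final) were preincubated with compound and NADPH (0.25 mg/mL final) for 30 min at 37 C. Acetylthiocholine/DTNB was then added; thiocholine was read colorimetrically after 10 min at room temperature.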
# [11] = biological target: Cytochrome P450 2D6 (Homo sapiens) (UniProt P10635); assay: Cytochrome P450 Family 2 Subfamily D Member 6 (CYP2D6) small molecule antagonists: luciferase reporter qHTS assay (AID 1671196); further: nearly all actives have a fitted effect of over 50% in size; further: potency means the concentration at half of the fitted maximal effect
# Outline: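 CYP2D6 activity was followed as luminescence from its luciferin product after a 1 h NADPH-driven reaction at room temperature. Enzyme-substrate mix and compound were pre-incubated for 10 min, and the signal was read 20 min after adding detection reagent.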
# [12] = biological target: Nuclear receptor subfamily 1 group I member 2 (Rattus norvegicus) (UniProt Q9R1A7); assay: Rat pregnane X receptor (rPXR) activation by small molecules, qHTS assay (AID 1346983); conditions: rPXR luciferase reporter cells, One-Glo luminescence, 24 h; max activation: stronger effect = higher value; further: potency means the concentration at half of the fitted maximal effect; nearly all actives have a fitted effect of over 20% in size
# Outline: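 Cell-based rPXR activation assay: rPXR cells, 2,000 per well, rested 5hr at 37 C, then exposed to compounds in DMSO for 24 hr at 37 C. Luciferase activity read by One-Glo luminescence after 30 min at room temperature.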
# [13] = biological target: Nuclear receptor subfamily 1 group I member 2 (Homo sapiens) (UniProt O75469); assay: Human pregnane X receptor (PXR) activation by small molecules, qHTS assay (AID 1346985); further: nearly all actives have a fitted effect of over 40% in size
# Outline: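 DPX-2 cells (HepG2 co-transfected with a PXR response element and a CYP3A4-promoter luciferase construct) were seeded at 2,000 per well, rested 5 hr at 37C, then exposed to DMSO-dissolved compounds for 24 hr. Activation was read as luciferase luminescence.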
# Tags describe the fitted curve by direction and shape.
# Sequence of UniProt O75469 (O75469 whole entry, looked up): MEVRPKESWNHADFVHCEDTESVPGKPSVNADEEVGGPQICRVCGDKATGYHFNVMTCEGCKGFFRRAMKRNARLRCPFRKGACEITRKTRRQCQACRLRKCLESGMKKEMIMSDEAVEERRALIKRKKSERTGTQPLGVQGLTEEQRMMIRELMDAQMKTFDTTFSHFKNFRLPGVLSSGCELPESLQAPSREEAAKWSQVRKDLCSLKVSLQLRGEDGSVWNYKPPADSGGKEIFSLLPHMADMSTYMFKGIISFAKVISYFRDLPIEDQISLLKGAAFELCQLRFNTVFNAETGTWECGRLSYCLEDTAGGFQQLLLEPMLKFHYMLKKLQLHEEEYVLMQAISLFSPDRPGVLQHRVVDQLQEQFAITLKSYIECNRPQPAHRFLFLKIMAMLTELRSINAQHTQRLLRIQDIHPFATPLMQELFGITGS
# Sequence of UniProt P10635 (P10635 whole entry, looked up): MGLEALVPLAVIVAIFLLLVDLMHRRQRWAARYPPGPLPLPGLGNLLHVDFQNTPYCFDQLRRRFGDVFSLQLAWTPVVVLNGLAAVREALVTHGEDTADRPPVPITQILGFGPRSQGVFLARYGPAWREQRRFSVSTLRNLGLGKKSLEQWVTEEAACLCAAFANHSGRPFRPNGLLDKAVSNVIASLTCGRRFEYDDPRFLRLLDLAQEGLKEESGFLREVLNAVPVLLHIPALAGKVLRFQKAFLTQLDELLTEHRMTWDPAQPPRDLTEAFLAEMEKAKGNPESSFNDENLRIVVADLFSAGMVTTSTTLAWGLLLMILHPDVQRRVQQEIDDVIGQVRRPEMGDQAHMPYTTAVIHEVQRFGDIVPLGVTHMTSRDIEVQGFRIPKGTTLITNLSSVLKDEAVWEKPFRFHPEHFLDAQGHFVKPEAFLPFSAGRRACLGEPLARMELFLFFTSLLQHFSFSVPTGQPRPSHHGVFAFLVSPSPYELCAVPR
# Sequence of UniProt P22303 (P22303 whole entry, looked up): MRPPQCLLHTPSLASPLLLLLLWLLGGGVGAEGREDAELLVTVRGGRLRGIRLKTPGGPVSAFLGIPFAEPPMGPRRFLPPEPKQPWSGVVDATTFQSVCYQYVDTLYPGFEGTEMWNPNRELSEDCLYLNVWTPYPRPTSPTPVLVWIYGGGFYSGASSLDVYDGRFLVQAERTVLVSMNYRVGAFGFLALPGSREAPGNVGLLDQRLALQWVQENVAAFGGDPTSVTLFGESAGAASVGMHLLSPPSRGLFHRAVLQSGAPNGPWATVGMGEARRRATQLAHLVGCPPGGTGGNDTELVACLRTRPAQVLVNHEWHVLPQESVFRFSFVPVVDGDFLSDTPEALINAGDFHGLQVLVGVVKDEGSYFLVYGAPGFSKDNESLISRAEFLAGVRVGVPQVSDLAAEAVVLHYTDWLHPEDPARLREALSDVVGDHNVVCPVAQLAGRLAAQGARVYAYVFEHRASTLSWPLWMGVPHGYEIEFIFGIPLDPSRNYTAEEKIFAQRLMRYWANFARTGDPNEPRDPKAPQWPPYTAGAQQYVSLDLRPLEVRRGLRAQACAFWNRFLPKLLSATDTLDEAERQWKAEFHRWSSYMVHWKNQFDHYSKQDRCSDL
# Sequence of UniProt P33261 (P33261 whole entry, looked up): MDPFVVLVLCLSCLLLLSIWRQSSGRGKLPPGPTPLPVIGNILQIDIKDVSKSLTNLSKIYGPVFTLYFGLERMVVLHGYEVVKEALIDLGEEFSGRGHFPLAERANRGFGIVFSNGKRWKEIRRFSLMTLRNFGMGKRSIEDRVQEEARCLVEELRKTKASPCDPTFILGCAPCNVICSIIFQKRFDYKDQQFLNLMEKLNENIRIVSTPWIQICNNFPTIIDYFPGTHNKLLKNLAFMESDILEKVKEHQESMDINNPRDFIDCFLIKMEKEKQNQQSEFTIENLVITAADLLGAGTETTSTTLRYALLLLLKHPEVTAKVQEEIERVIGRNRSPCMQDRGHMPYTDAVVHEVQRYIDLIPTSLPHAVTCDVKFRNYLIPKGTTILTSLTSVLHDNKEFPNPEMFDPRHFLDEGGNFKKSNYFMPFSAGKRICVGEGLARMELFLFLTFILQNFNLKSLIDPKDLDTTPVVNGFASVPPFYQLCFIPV
# Sequence of UniProt Q9R1A7 (Q9R1A7 whole entry, looked up): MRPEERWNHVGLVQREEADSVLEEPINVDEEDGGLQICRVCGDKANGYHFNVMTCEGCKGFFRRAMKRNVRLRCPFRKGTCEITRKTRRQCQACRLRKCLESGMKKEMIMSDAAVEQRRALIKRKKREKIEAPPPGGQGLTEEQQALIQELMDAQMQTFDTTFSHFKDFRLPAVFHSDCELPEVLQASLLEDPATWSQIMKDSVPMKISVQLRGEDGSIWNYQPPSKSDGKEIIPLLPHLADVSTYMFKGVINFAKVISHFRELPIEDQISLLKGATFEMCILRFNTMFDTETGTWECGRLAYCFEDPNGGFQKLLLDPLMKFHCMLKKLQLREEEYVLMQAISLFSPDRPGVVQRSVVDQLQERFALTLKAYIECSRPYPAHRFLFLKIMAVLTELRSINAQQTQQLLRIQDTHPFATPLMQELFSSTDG
smiles,measurement,setting,value
Cc1c([N+](=O)[O-])c(C)c([N+](=O)[O-])c(C(C)(C)C)c1[N+](=O)[O-],Potency,[1],"inconclusive: 61.1 µM [cytotoxic, single point]"
CNC(=O)Oc1cccc2ccccc12,Potency,[1],inconclusive: 68.6 µM [cytotoxic]
same,Potency,[2],"inconclusive: 68.6 µM [activator, partial curve, poor fit]"
same,Potency,[3],active: 3.16 µM
same,Potency,[4],active: 2.22 µM and inactive
same,Potency,[5],"inconclusive: 703 nM [inhibitor, full curve] and inconclusive: 1.1 µM [inhibitor, full curve]"
same,Potency,[6],active: 35.3 µM and active: 63.3 µM and active: 17.4 µM
C=CC(=O)OCC(C)O (stereo not given),Potency,[1],inconclusive: 63.1 µM [cytotoxic]
C=CC(=O)OCC(C)C,Potency,[1],inactive
same,Potency,[7],"inconclusive: 68.1 µM [cytotoxic, partial curve, poor fit]"
same,Potency,[2],active: 48.2 µM
NCCc1cc(O)c(O)cc1O,Potency,[1],"inconclusive: 26.6 µM [cytotoxic, partial curve]"
O=[N+]([O-])c1ccc(Oc2ccc(C(F)(F)F)cc2[N+](=O)[O-])cc1,Potency,[1],"inconclusive: 77 µM [cytotoxic, single point]"
same,Potency,[8],inactive
same,Potency,[2],active: 17.2 µM
same,Potency,[6],active: 0.894 µM
CCOC(=O)CCN(SN(C)C(=O)Oc1cccc2c1OC(C)(C)C2)C(C)C,Potency,[1],"inconclusive: 68.6 µM [cytotoxic, single point]"
same,Potency,[7],inactive
same,Potency,[2],"inconclusive: 34.4 µM [activator, partial curve]"
same,Potency,[9],active: 0.1 µM
same,Potency,[10],active: 0.796 µM
same,Potency,[11],"inconclusive: 71 µM [inhibitor, partial curve]"
CC(O)(CS(=O)(=O)c1ccc(F)cc1)C(=O)Nc1ccc(C#N)c(C(F)(F)F)c1 (stereo not given),Potency,[1],"inconclusive: 40 µM [cytotoxic, single point]"
same,Potency,[2],active: 31.8 µM
same,Potency,[12],"inconclusive: 10 µM [activator, partial curve, poor fit]"
same,Potency,[13],inactive
Cc1ccc(-c2c(Cl)nc(C#N)n2S(=O)(=O)N(C)C)cc1,Potency,[1],"inconclusive: 61.1 µM [cytotoxic, single point]"
same,Potency,[7],"inconclusive: 68.5 µM [cytotoxic, single point]"
CNC(=O)Oc1cccc2c1OC(C)(C)O2,Potency,[1],"inconclusive: 68.6 µM [cytotoxic, single point]"
Nc1nc(N)c(N)c(N)n1,Potency,[1],"inconclusive: 61.4 µM [rising, partial curve]"
same,Potency,[7],inconclusive: 61.4 µM
same,Potency,[6],"inconclusive: 80 µM [inhibitor, partial curve, poor fit]"
CCN(CC)c1nc(C)cc(OP(=S)(OC)OC)n1,Potency,[1],"inconclusive: 68.6 µM [cytotoxic, partial curve, poor fit]"
same,Potency,[7],inactive
same,Potency,[4],"inconclusive: 89.4 µM [inhibitor, partial curve, poor fit]"
same,Potency,[5],"inconclusive: 79.6 µM [inhibitor, partial curve, poor fit]"
same,Potency,[11],"inconclusive: 35.6 µM [inhibitor, partial curve]"
ClP(Cl)(Cl)(Cl)Cl,Potency,[1],"inconclusive: 69.1 µM [cytotoxic, single point]"
same,Potency,[8],"inconclusive: 69.1 µM [activator, single point]"
same,Potency,[6],"inconclusive: 80.2 µM [inhibitor, single point]"
COP(=O)(OC)O/C(=C/Cl)c1cc(Cl)c(Cl)cc1Cl,Potency,[1],"inconclusive: 72.4 µM [cytotoxic, single point]"
same,Potency,[7],inactive
same,Potency,[4],active: 42.2 µM
CCc1ccc(C(=O)NN(C(=O)c2cc(C)cc(C)c2)C(C)(C)C)cc1,Potency,[1],active: 27.3 µM
same,Potency,[7],active: 9.69 µM
same,Potency,[11],inactive
COC(=O)N(C(=O)N1COC2(C(=O)OC)Cc3cc(Cl)ccc3C2=N1)c1ccc(OC(F)(F)F)cc1 (stereo not given),Potency,[1],inconclusive: 33.5 µM [cytotoxic]
O=P1(NCCCl)OCCCN1CCCl (stereo not given),Potency,[1],inactive
same,Potency,[7],inactive
CCC[N+]1(C)CCCC1,Potency,[1],"inconclusive: 67.8 µM [rising, single point]"
same,Potency,[2],inactive
CC/C(=N\OC/C=C/Cl)C1=C(O)CC(C2CCOCC2)CC1=O (stereo not given),Potency,[1],inactive
O=C(O)C(Br)CBr (stereo not given),Potency,[1],inconclusive: 69.8 µM [cytotoxic]
N#CC(Br)Br,Potency,[1],inactive
same,Potency,[7],"inconclusive: 27.3 µM [cytotoxic, single point]"
O=NN1CCNCC1,Potency,[1],"inconclusive: 76.1 µM [cytotoxic, single point]"
same,Potency,[2],inactive
COc1nn(CSP(=S)(OC)OC)c(=O)s1,Potency,[1],"inconclusive: 70.6 µM [cytotoxic, single point]"
same,Potency,[7],"inconclusive: 27.3 µM [rising, single point]"
same,Potency,[11],active: 31.7 µM
